Assay results published in PubChem BioAssay AID1508642 (National Center for Advancing Translational Sciences (NCATS), 2021).
Out of some 43,000 compounds screened, about 200 (0.47%) were called active. Roughly 12% stayed inconclusive and do not appear here. Calls follow the shape of the dose curve; as a rule, active = well fitted cell-killing curve with a large enough effect; inconclusive = small, poorly fitted or top-dose-only effect, or effect the other way; inactive = flat fitted curve, though single readings scatter. The list shows a part of the results.

Experiment: Cell viability qHTS assay in S16 Pmp22-F2sN cells; also: nearly all actives have a fitted effect of over 65% in size
Conditions: S16 Pmp22-F2sN Schwann cells viability, CellTiter-Glo, 24 h; series mostly up to 57.5 µM; activity change, negative = cytotoxicity: at the top concentration
Procedure, shortened: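 Viability was measured by CellTiter-Glo luminescence (15 min, room temperature). This followed 24 h at 37 °C of compound exposure (23 nL pin transfer) in S16 Pmp22-F2sN Schwann cells, 500-1,000 per well.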
% is scaled to controls: 0 for no effect and ±100 for the full control effect; potency is read from the fitted curve at half-maximal effect.

SMILES | activity change, negative = cytotoxicity | Potency
COc1cc(OC)c(NC(=O)c2c(C)nn(-c3ccc(C)cc3)c2-n2cccc2)cc1Cl | inactive: 18.3% | 
COc1ccc(C(=O)NCCn2cc(SCC(=O)Nc3ccccc3)c3ccccc32)cc1OC | inactive: 10.4% | 
CC(C)(C)C(=O)Cn1c(=O)n(CCCCCC(=O)NCc2ccc3c(c2)OCO3)c(=O)c2sccc21 | inactive: 3.77% | 
COc1ccc(OC)c(NC(=O)c2ccc(-c3nc(CSc4ccccc4)c(C)o3)cc2)c1 | inactive: -1.65% | 
CSc1cccc(NS(=O)(=O)c2ccc3[nH]cc(C(=O)N4CCCC4)c(=O)c3c2)c1 | inactive: 14.8% | 
COc1ccc(CCNC(=O)c2ccc3c(c2)CCN3S(=O)(=O)c2ccc(Cl)cc2)cc1 | inactive: -8.98% | 
Cc1ccc(NC(=O)CSc2nccn2C2CCCC2)cc1 | inactive: -17.1% | 
Cc1ccc(NC(=O)Cn2cc(S(=O)(=O)c3ccc(F)cc3)c(=O)c3cc4c(cc32)OCO4)cc1 | inactive: 11.4% | 
COc1ccc(-n2c3c(c(=O)[nH]c2=O)C(NC(C)=O)(C(F)(F)F)C(=O)N3)cc1 (stereo unspecified) | inactive: 3.49% | 
COCCNC(=O)Cn1c(=O)n(Cc2ccc(C(=O)NCCc3ccc(OC)c(OC)c3)cc2)c(=O)c2ccccc21 | inactive: 3.38% | 
COc1cc(Cl)c(C)cc1NC(=O)CCCN1C(=O)C(c2ccccc2)Oc2cccnc21 (stereo unspecified) | inactive: 10.4% | 
COc1ccc(NC(=O)C2CCCN(S(=O)(=O)c3cn(C)cn3)C2)cc1Cl (stereo unspecified) | inactive: 13.1% | 
Cc1ccc(C(=O)c2sc(Nc3ccccc3F)c(S(=O)(=O)c3ccccc3)c2N)c(C)c1 | inactive: -13.4% | 
O=C(NCc1ccc2c(c1)OCO2)c1ccc2c(c1)N(Cc1cccc(Cl)c1)C(=O)c1ccccc1S2 | inactive: -0.0762% | 
Cc1cccc(N2CCN(C(=O)C3CCN(S(=O)(=O)c4c(C)noc4/C=C/c4ccccc4F)CC3)CC2)c1C | inactive: -1.46% | 
COc1ccc(C(=O)N(Cc2sccc2C)C2CCS(=O)(=O)C2)cc1Cl (stereo unspecified) | inactive: -3.07% | 
Cc1cc(C)c(Cn2c3ccccc3c3cnn(CC(=O)NCCc4ccccc4)c(=O)c32)c(C)c1 | inactive: -13.2% | 
COc1ccc(Cl)cc1NC(=O)Cn1nnc2sc3c(c2c1=O)CCC(C(C)(C)C)C3 (stereo unspecified) | inactive: 12% | 
CCc1cccc(C)c1NS(=O)(=O)c1c(C(=O)N2CCCCCC2)c(C)n(C)c1C | inactive: 3.53% | 
Cc1ccc(Cl)cc1N1CCN(C(=O)CN2C(=O)COc3ccc(S(=O)(=O)N4CCOCC4)cc32)CC1 | inactive: 19.7% | 
O=C(NCc1ccc(F)cc1)c1ccc(CSc2nc3ccncc3n2Cc2ccc(F)cc2)cc1 | inactive: -17.9% | 
CCOC(=O)c1c(Nc2cccc(O)c2)nnc(-c2ccccc2)c1-c1ccccc1 | inactive: 27.8% | 
O=C(Nc1nnc(S(=O)(=O)N2CCCCCC2)s1)c1ccc(Br)cc1 | inactive: 6.29% | 

SMILES | activity change, negative = cytotoxicity | Potency
CC(=O)c1ccc(NC2=NS(=O)(=O)c3ccccc32)cc1 | inactive: 3.09% | 
CCc1ccc(NC(=O)CCS(=O)(=O)c2ccc3c(c2)CCN3C(C)=O)cc1 | inactive: -0.884% | 
Cc1cc(NC(=O)c2ccc3c(c2)N(Cc2cccc(Cl)c2)C(=O)c2ccccc2S3=O)ccc1Br (stereo unspecified) | inactive: 9.82% | 
Cc1ccc(S(=O)(=O)c2cn(Cc3ccccc3F)c3cc4c(cc3c2=O)OCO4)cc1 | inactive: -11.7% | 
CC1CCCN(Cc2c(O)ccc3c(=O)c(Oc4ccccc4Cl)c(C(F)(F)F)oc23)C1 (stereo unspecified) | inactive: 17.6% | 
COc1ccc(OC)c(CNC(=O)C2CCN(S(=O)(=O)c3cn(C)cn3)CC2)c1 | inactive: -0.721% | 
COc1cc(Cl)c(C)cc1NC(=O)c1cc(CN2CCOCC2)on1 | inactive: 2.48% | 
CCC1CN(S(=O)(=O)c2cc(-c3cc(C)no3)ccc2OC)c2cc(C)ccc2O1 (stereo unspecified) | inactive: -21.4% | 
COc1cccc2sc(N(Cc3cccnc3)C(=O)COc3ccccc3)nc12 | inactive: 1.81% | 
Cc1nn(-c2ccccc2)c(OC(=O)c2ccccc2F)c1S(=O)(=O)c1ccccc1 | inactive: 6.74% | 
CCOc1ccc(C(=O)Nc2nnc(SCc3cc(=O)c4cc(C)ccc4[nH]3)s2)cc1 | inactive: -8.66% | 
CC1CCN(S(=O)(=O)c2ccc3c(c2)N(CC(=O)NCCCN2CCCCC2C)C(=O)CS3)CC1 (stereo unspecified) | inactive: 12.7% | 
N#Cc1ccccc1NC(=O)c1cc2c(=O)n3ccccc3nc2s1 | inactive: -29.7% | 
COc1ccc(CCNC(=O)C2=C(C)C(=O)OC23CCCCC3)c(OC)c1OC | inactive: 3.93% | 
CCN(CC)S(=O)(=O)c1ccc2c(c1)nc(CN(C)C(=O)c1cccc(Cl)c1)n2C | inactive: -14.5% | 
Cc1ccc(C)c(NC(=O)CSc2nc(=O)n(CCN(C)C)c3c2CCC3)c1 | inactive: 20.8% | 
COc1cc(CN(C(=O)c2ccccc2[N+](=O)[O-])c2ccccn2)cc(OC)c1OC | inactive: -7.03% | 
Cc1sc2c(c1C)c(=O)n(CCc1ccccc1)c(=O)n2Cc1ccccc1Cl | inactive: 14% | 
CCc1ccccc1NC(=O)Cn1c(=O)c2cccn2c2ccc(F)cc21 | inactive: 5.75% | 
CC(C)c1ccc(NC(=O)CSC2=Nc3ccccc3C3=NC(CC(=O)NCc4ccc(F)cc4)C(=O)N23)cc1 (stereo unspecified) | inactive: -1.42% | 
COc1ccc(CNC(=O)c2ccc3c(c2)N(Cc2cccc(Cl)c2)C(=O)c2ccccc2S3)c(OC)c1 | inactive: 2.09% | 
Cc1ccc(CNC(=O)c2nc(SCc3ccc(C)cc3)ncc2Cl)cc1 | inactive: 5.71% | 
Cc1ccc(-n2c(=O)c3cccnc3n2CC(=O)Nc2cccc(C)c2C)cc1 | inactive: -15.7% | 

SMILES | activity change, negative = cytotoxicity | Potency
Cc1cccn2c(Nc3ccccc3)c(-c3ccc(N4CCOCC4)cc3)nc12 | inactive: -24.4% | 
CC(C)c1ccc(OC(=O)c2cc(-c3ccc4c(c3)OCCO4)on2)cc1 | inactive: 1.72% | 
COCCCNC(=O)CCn1c(=O)c2ccccc2n(CC(=O)Nc2c(C)cc(C)cc2C)c1=O | inactive: -0.701% | 
Cc1ccc2nc(-c3ccc(Cl)c(NC(=O)c4cccnc4)c3)oc2c1 | inactive: -5.15% | 
CC(=O)N1CCCc2cc(S(=O)(=O)N3CCCCC3)ccc21 | inactive: 1.59% | 
CN(C(=O)c1cc2c(=O)oc3ccccc3c2s1)c1ccc(F)cc1 | inactive: 23.6% | 
Cc1ccc(Cl)cc1N1CCN(C(=O)C2CCCN(S(=O)(=O)c3ccc(Br)s3)C2)CC1 (stereo unspecified) | inactive: -18.5% | 
COc1ccccc1NC(=O)CCn1cnc2ccccc2c1=O | inactive: 6.97% | 
O=S(=O)(NCC(c1ccco1)S(=O)(=O)c1cccs1)c1ccc(F)c(C(F)(F)F)c1 (stereo unspecified) |  | active: 2510 nM
Cc1ccc(OCC(=O)NCC(=O)OCc2cc(=O)n3nc(C)sc3n2)cc1 | inactive: -12% | 
CCOC(=O)C1CCN(S(=O)(=O)c2cc(-c3onc(C)c3C)ccc2OC)CC1 | inactive: -0.961% | 
COc1ccc(C(=O)N2CCC(c3nc4ccccc4o3)CC2)cc1 | inactive: -2.1% | 
CCOc1ccc(C(=O)NCCc2csc(-c3ccc(C(F)(F)F)cc3)n2)cc1OCC | inactive: 22.7% | 
CCOc1ccccc1CNC(=O)C1CCN(C2=NS(=O)(=O)C(c3ccc(C)c(C)c3)=C2C)CC1 | inactive: 1.66% | 
CCCN(C(=O)c1nn(-c2ccc(OC)c(Cl)c2)c(=O)c2c1c1ccccc1n2C)c1ccccc1F | inactive: 8.49% | 
COc1ccc(OC)c(NC(=O)Cn2cnc3sc(C)c(S(=O)(=O)N4CCN(c5ccccc5OC)CC4)c3c2=O)c1 | inactive: -1.81% | 
COc1cccc(NC(=O)c2sc3nc(C)c(C(=O)Nc4ccc(C)cc4C)c(-c4sccc4C)c3c2N)c1 | inactive: 0.509% | 
O=c1c2oc3ccccc3c2n(Cc2cccc(F)c2)c(=O)n1Cc1ccco1 | inactive: 3.48% | 
CC(C)c1ccc2oc(-c3cc(NC(=O)c4cccs4)ccc3Cl)nc2c1 | inactive: 6.53% | 
c1ccc(Cc2nnc(SCc3nc(-c4cccs4)no3)n2-c2ccccc2)cc1 | inactive: -19.5% | 
Cc1ccccc1N1CCN(S(=O)(=O)c2nnc(NC(=O)c3ccccc3)s2)CC1 | inactive: -7% | 
COc1ccc(C(=O)Nc2cc(C(C)C)c(O)c(S(=O)(=O)c3ccc(OC)cc3)c2C)cc1 | inactive: 1.74% | 
COc1ccc(S(=O)(=O)c2c(Nc3ccc(F)cc3)sc(C(=O)c3ccc(C)cc3C)c2N)cc1 | inactive: -8.27% | 

SMILES | activity change, negative = cytotoxicity | Potency
CCCn1c(=O)n(-c2cc(Cl)c(OC)cc2OC)c(=O)c2c3c(sc21)CN(C(C)=O)CC3 | inactive: 29.5% | 
CC1=C(C(=O)Nc2cccnc2)C(c2cccc(O)c2)n2nc(SCc3ccccc3)nc2N1 (stereo unspecified) | inactive: 2.74% | 
Cc1ccc([C@H]2Nc3ccc(S(=O)(=O)Nc4cccc(Cl)c4C)cc3[C@H]3C=CC[C@H]32)cc1 | inactive: 0.0848% | 
CCn1cc(CCC(=O)NCc2ccc(F)cc2)c2ccccc21 | inactive: 7.18% | 
Cc1ccc(Cl)cc1NC(=O)Nc1c(C)n(C)n(-c2ccccc2)c1=O | inactive: 11.1% | 
CCOC(=O)CSc1nc2ccc(NC(=O)c3ccc(F)cc3)cc2s1 | inactive: 1.94% | 
CCOC(=O)c1cccc(NC(=O)CCc2c(C)nc3cc(-c4ccc(Cl)cc4)nn3c2C)c1 | inactive: 1.73% | 
COc1ccc(NC(=O)Cn2cc(S(=O)(=O)c3ccc(C)cc3)c(=O)c3ccccc32)cc1OC | inactive: 6.68% | 
CCOc1ccccc1Nc1nc(-c2cccc(Cl)c2)c2c(n1)-c1ccccc1OC2 | inactive: 3.85% | 
Cc1ccc(CSCC(=O)NCc2ccc(F)cc2)cc1 | inactive: 3.85% | 
COc1ccc(-c2noc(-c3ccc(NCc4ccco4)c([N+](=O)[O-])c3)n2)cc1 | inactive: 9.43% | 
COc1ccc(-c2ccc(CNc3ccc4[nH]c(=O)[nH]c4c3)o2)cc1Cl | inactive: -9.25% | 
Cn1cnnc1SCC(=O)Nc1cc(C(=O)O)cc(C(=O)O)c1 | inactive: 3.42% | 
COc1cc(-c2noc(CSc3nc(-c4ccccc4)cc(=O)[nH]3)n2)cc(OC)c1OC | inactive: -1.45% | 
Cc1cccc(C(=O)NCC(c2ccc3c(c2)OCO3)N2CCN(c3ccccc3F)CC2)c1 (stereo unspecified) | inactive: -28.5% | 
COc1ccc(NC(=O)c2sc3nc4c(cc3c2N)CN(C(C)C)CC4)c(OC)c1 | inactive: -10.2% | 
Cc1ccc(-n2nc(C)c3c(C)cc(=O)n(CC(=O)Nc4ccc(Br)cc4F)c32)cc1 | inactive: 21.3% | 
COc1ccc(S(=O)(=O)c2c(Nc3ccc(C)cc3)sc(C(=O)c3ccc(C)cc3)c2N)cc1 | inactive: 8.68% | 
Cc1cc(=O)n2[nH]c(NCc3ccc(F)cc3)nc2n1 | inactive: 0.0595% | 
O=c1cc(-c2ccccc2)c2cc(Cl)c3c(c2o1)CN(Cc1ccccc1)CO3 | inactive: -0.932% | 
COc1ccc(CC(=O)NCc2ccc3c(c2)CCN3C(=O)c2ccc(Cl)cc2)cc1OC | inactive: -9.13% | 
Cc1cc(C)c2c(=O)cc(CSc3nnc(COc4ccccc4C)n3C)[nH]c2c1 | inactive: 17.5% | 
